In PubChem BioAssay AID624330 (Southern Research Specialized Biocontainment Screening …, 2012):
The whole screen tested about 340,000 compounds, of which about 2,100 (0.62%) were called active. The shares of active, inactive and inconclusive entries below differ from those in the screen.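 Rule for the calls: active = first-screen hits whose inhibition reached a set limit at any dose in the follow-up dose series; inconclusive = inhibition above the set first-screen limit but never retested; inactive = the rest.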

Biological target: Rac GTPase-activating protein 1 (Homo sapiens) (UniProt Q9H0H5)
Test: blockers of MgcRacGAP-driven Rac1 GTP hydrolysis – biochemical, ADP Hunter fluorescence, primary and confirmatory, confirmation (AID 624330);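 note: fluorescence reports GDP produced by GAP-driven GTP hydrolysis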
Conditions: MgcRacGAP-stimulated Rac1 GTP hydrolysis, at 30 µM, stronger effect = higher value, GST-tagged Rac1 F28L mutant substrate

Chain of UniProt Q9H0H5 (Q9H0H5 whole entry, looked up): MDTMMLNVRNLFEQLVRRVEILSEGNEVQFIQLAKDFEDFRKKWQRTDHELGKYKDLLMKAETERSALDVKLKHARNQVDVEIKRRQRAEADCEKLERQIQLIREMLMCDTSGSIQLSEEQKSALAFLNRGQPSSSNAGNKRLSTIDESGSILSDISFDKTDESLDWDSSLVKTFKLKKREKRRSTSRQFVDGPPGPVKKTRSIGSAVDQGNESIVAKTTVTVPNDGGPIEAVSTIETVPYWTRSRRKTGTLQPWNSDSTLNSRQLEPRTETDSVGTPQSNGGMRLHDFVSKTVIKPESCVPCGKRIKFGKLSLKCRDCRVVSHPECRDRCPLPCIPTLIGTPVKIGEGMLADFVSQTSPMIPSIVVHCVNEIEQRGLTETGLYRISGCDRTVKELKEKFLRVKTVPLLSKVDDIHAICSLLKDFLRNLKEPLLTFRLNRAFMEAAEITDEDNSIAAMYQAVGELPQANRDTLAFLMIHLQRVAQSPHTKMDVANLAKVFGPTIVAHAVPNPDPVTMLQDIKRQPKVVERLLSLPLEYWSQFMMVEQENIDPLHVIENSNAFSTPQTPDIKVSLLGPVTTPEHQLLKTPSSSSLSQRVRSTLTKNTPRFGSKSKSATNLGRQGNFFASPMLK

inhibition, inactive:
Cc1ccc(S(=O)(=O)N2CCOCC2)cc1C(=O)OCC(=O)NC1CCCC1 3.52%
O=C(c1sc2ccccc2c1Cl)N1CCN(c2ncccn2)CC1 5.52%
CCCn1c(=S)[nH]c2cc(Cl)ccc21 9.71%
O=S(=O)(Cc1ccccc1)NCCc1ccc(F)cc1 -2.46%
COc1ccc(C(=O)CCNc2ccc3c(c2)OCCO3)cc1 38.5%
Cc1ccc(S(=O)(=O)N2CCN(CC(=O)N3CCOCC3)CC2)cc1 6.79%
C/C(=N\NC(=O)c1ccc(Cl)cc1)c1ccccn1 -1.19%
O=C(N/N=C/c1ccccc1O)c1cccc2ccccc12 11.8%
CCC(C)NC(=O)CS(=O)Cc1nc(-c2cccc(C)c2)oc1C (stereo not drawn) 2.8%
CCOc1ccc(CC2S/C(=N/N=C/c3ccco3)NC2=O)cc1 (stereo not drawn) -0.79%
COc1ccc(/C=N/NC(=O)C2C3CCCCC32)cc1OC (stereo not drawn) 10.4%
CC(=O)c1cccc(-c2ccc3c(=O)[nH]c(Nc4ccccc4)cc3c2)c1 0.61%
COc1cc(NC(=O)CN2C(=O)NC(CC(C)C)C2=O)cc(OC)c1OC (stereo not drawn) 6.04%
Nc1ccc2c(c1)Cc1cc([N+](=O)[O-])ccc1-2 14.4%
COc1cc(C=O)ccc1OC(=O)c1cccnc1 7.23%
CSC[C@H]1CN(Cc2ccccc2)C(=O)[C@@H]1CC(=O)Nc1ccc(Br)cc1 11%
O=C1CSC(c2ccco2)N1 (stereo not drawn) 0.85%
CCN1C(=O)[C@H]2[C@@H](c3ccc(C)cc3)N3C(=O)N(c4ccc(OC)cc4)C(=O)[C@@]3(Cc3ccc(Cl)cc3)[C@H]2C1=O -2.48%
COc1ccc(/C=N\NC(=O)c2cc(O)c(O)c(O)c2)cc1CN1CCN(c2ccc(F)cc2)CC1 -36.7%
O=C(CC(=O)Nc1cccc(Cl)c1)N/N=C\c1ccccc1 1.72%
CC(C)Cn1c(SCC(=O)c2ccc(Cl)s2)nnc1-c1ccco1 11.6%
S=C1SC2(CCCCCC2)NC2=C1CCCCC2 8.68%

inhibition, inconclusive:
Cc1ccc(OCCn2c(=S)[nH]c3c(N)ncnc32)cc1 74.4%
CN(C)c1ccc(Cl)c(NC(N)=S)c1 35.4%
Cc1ccccc1NC(=S)Nc1ccc2[nH]c(=O)[nH]c2c1 32.8%
Cc1cc(NC(=O)NC2(C(F)(F)F)Oc3ccc(Cl)cc3O2)no1 (stereo not drawn) 56.4%
O=C(O)CN1C(=O)/C(=C/c2ccc(N3CCCCC3)o2)SC1=S 34.4%
Cc1ccc2nc(/C(C#N)=C\c3ccc(N4CCOCC4)o3)[nH]c2c1 43.1%
O=C1O[C@@H](c2ccc(O)cc2)Cc2cccc(O)c21 33.3%
Cc1ccc(/C=N/NC(=O)c2cc3ccccc3cc2O)o1 31.9%
CC1CN(CCOc2ccccc2C(C)C)CC(C)O1 (stereo not drawn) 35.9%
c1ccc(SSc2ccccn2)nc1 63.3%
COc1cc(Cc2ccc(N)c(OC)c2)ccc1N 56%
COc1ccc(NC(=O)c2sc(=S)[nH]c2N)cc1 39.4%
CN(C)c1ccc(N/C=C/C(=O)c2ccccc2)cc1 33.8%
CC(C)n1c(=S)[nH]c2scc(-c3cccs3)c2c1=O 50.8%
OCCNc1nc(Nc2ccc(O)cc2)nc2ccccc12 88.6%
COc1ccc(N=C2S/C(=C\c3ccc(N4CCOCC4)o3)C(=O)N2CCc2c[nH]c3ccccc23)cc1 52.6%
Oc1ccc(-c2[nH]ncc2-c2cccc3cccnc23)c(O)c1 70.4%
O=c1c2ccccc2sn1-c1ccccc1 51.9%
CCC(=Nc1ccccc1O)C1=C(O)CC(c2ccccc2)CC1=O (stereo not drawn) 34.1%
Cc1ccc2oc(=O)c(/C=C(\O)C(C)(C)C)nc2c1 55.6%
CCCc1cc(=O)[nH]c(Nc2ccc(O)cc2)n1 64.7%
COC1=CC(=O)C(O)=C(CCCCCCC/C=C/CCCCCCCC2=C(O)C(=O)C=C(OC)C2=O)C1=O 52.6%
COc1cc(CNc2ccccc2)c([N+](=O)[O-])cc1OC 32.2%
CCc1ccc2oc(-c3cc(N)ccc3O)nc2c1 32.5%
COc1cc(/C=C2/C(=O)ON=C2C)cc(Cl)c1O 33.4%
CN(C)c1ccc(C=c2c3cc([N+](=O)[O-])ccc3n3c2cc(-c2ccccc2)[n+]3C)cc1 120%
